# According to article PMC5892938:
# The list shows a part of the results. At the low end of the ranking the order means little.
# Target: GST-SBP-SLBP (stem-loop binding protein) (UniProt Q14493)
# Experiment: targeted RNA Bind-n-Seq;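 note: DESeq read counts versus GST-SBP nonspecific binding control pulldown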
# Conditions: RBNS binding buffer: 25 mM Tris pH 7.5, 150 mM KCl, 3 mM MgCl2, 0.1% Tween, 0.5 mg/mL BSA, 1 mM DTT; 27 nM protein, 750 pM RNA pool; temperature not stated; high values mean tight binding
row,Sequence,binding signal (log2 fold change)
1,GGUCACGUCUCAAUCAACUCCUAAGAGGGGGGGAAAACCCCUUUGCCCUCCAACUCAACAGCUCGCAGUCAAG,-0.0802
2,GGUCACGUCUCAAUCAACUCUACUUCAGGAGUUUACUCCUGUAAUUUCAACAGCUCGCAGUCAAG,-0.112
3,GGUCACGUCUCAAUCAACUCAUUCCCCAGGGAAAGCCCUGGUUUAUUCAACAGCUCGCAGUCAAG,-0.165
4,GGUCACGUCUCAAUCAACUCAAUUUCAGGAGUUUUCUCCUGUAUAGUCAACAGCUCGCAGUCAAG,-0.203
5,GGUCACGUCUCAAUCAACUCUUAAGAGGGGGGGAAAACCCCUUUGCCCUCCAUAUCAACAGCUCGCAGUCAAG,-0.000801
6,GGUCACGUCUCAAUCAACUCUACUCCCAGGGAAACCCCUGGCAAACUCAACAGCUCGCAGUCAAG,-0.0669
7,GGUCACGUCUCAAUCAACUCUACUUCAGGAGUUUCCUCCUGCUAUCUCAACAGCUCGCAGUCAAG,-0.141
8,GGUCACGUCUCAAUCAACUCCUAAGAGGGGGGGAAAACCCCUUUACCCUCCCAAUCAACAGCUCGCAGUCAAG,0.0544
9,GGUCACGUCUCAAUCAACUCCCUAGAGGGGGGGAAAACCCCUUUACCCUCGUUUUCAACAGCUCGCAGUCAAG,-0.181
10,GGUCACGUCUCAAUCAACUCUAACGAGGGGGGGAAAACCCCUUUGCCCUCAUAAUCAACAGCUCGCAGUCAAG,0.0341
11,GGUCACGUCUCAAUCAACUCAUUCCCAGGAGUUUUCUCCUGUAAUCUCAACAGCUCGCAGUCAAG,0.0752
12,GGUCACGUCUCAAUCAACUCUAUUUCAGGAGUUUACUCCUGCAUAUUCAACAGCUCGCAGUCAAG,-0.15
13,GGUCACGUCUCAAUCAACUCAUUCCCCAGGGAAACCCCUGGCUAAUUCAACAGCUCGCAGUCAAG,-0.326
14,GGUCACGUCUCAAUCAACUCUUCGUCAGGAGUUUUCUCCUGCUAAUUCAACAGCUCGCAGUCAAG,0.146
15,GGUCACGUCUCAAUCAACUCAAUUUCAGGAGUUUCCUCCUGCUUUCUCAACAGCUCGCAGUCAAG,0.0293
16,GGUCACGUCUCAAUCAACUCCCUAGAGGGGGGGAAAACCCCUUUGCCCUCACUAUCAACAGCUCGCAGUCAAG,-0.236
17,GGUCACGUCUCAAUCAACUCUUUUUCCAGGGAAAUCCCUGGCAAAUUCAACAGCUCGCAGUCAAG,0.152
18,GGUCACGUCUCAAUCAACUCCAAAGAGGGGGGGAAAACCCCUUUGCCCUCAACCUCAACAGCUCGCAGUCAAG,-0.113
19,GGUCACGUCUCAAUCAACUCUAUUUCCAGGGAAAACCCUGGCGUUUUCAACAGCUCGCAGUCAAG,-0.234
20,GGUCACGUCUCAAUCAACUCAUCUUCCAGGGAAAACCCUGGUUUAUUCAACAGCUCGCAGUCAAG,-0.283
21,GGUCACGUCUCAAUCAACUCUACUUCAGGAGUUUCCUCCUGCAAUUUCAACAGCUCGCAGUCAAG,0.185
22,GGUCACGUCUCAAUCAACUCUUUUUCAGGAGUUUUCUCCUGCAAACUCAACAGCUCGCAGUCAAG,-0.0925
23,GGUCACGUCUCAAUCAACUCAAUCCCCAGGGAAAGCCCUGGUAAUCUCAACAGCUCGCAGUCAAG,-0.102
24,GGUCACGUCUCAAUCAACUCAUCUUCAGGAGUUUCCUCCUGUAUACUCAACAGCUCGCAGUCAAG,0.0402
25,GGUCACGUCUCAAUCAACUCUUUCCCCAGGGAAAACCCUGGUAUACUCAACAGCUCGCAGUCAAG,0.104

row,Sequence,binding signal (log2 fold change)
1,GGUCACGUCUCAAUCAACUCUUCUUCCAGGGAAAUCCCUGGUAUUCUCAACAGCUCGCAGUCAAG,0.131
2,GGUCACGUCUCAAUCAACUCUUCCCCCAGGGAAACCCCUGGUUUAUUCAACAGCUCGCAGUCAAG,-0.145
3,GGUCACGUCUCAAUCAACUCAUUUCCAGGAGUUUCCUCCUGCAUAUUCAACAGCUCGCAGUCAAG,-0.172
4,GGUCACGUCUCAAUCAACUCUAUUUCAGGAGUUUUCUCCUGUAUUCUCAACAGCUCGCAGUCAAG,-0.0653
5,GGUCACGUCUCAAUCAACUCUAUCCCAGGAGUUUCCUCCUGCUAACUCAACAGCUCGCAGUCAAG,0.0883
6,GGUCACGUCUCAAUCAACUCUUCUUCCAGGGAAAUCCCUGGUUAACUCAACAGCUCGCAGUCAAG,0.0795
7,GGUCACGUCUCAAUCAACUCAAUUCCCAGGGAAAACCCUGGCUAACUCAACAGCUCGCAGUCAAG,0.285
8,GGUCACGUCUCAAUCAACUCUUUCCCCAGGGAAAACCCUGGUAAUGUCAACAGCUCGCAGUCAAG,-0.0128
9,GGUCACGUCUCAAUCAACUCUUCUUCAGGAGUUUUCUCCUGCAUUUUCAACAGCUCGCAGUCAAG,-0.0852
10,GGUCACGUCUCAAUCAACUCUUCGUCAGGAGUUUUCUCCUGCAUUCUCAACAGCUCGCAGUCAAG,-0.000341
11,GGUCACGUCUCAAUCAACUCUUCUUCAGGAGUUUCCUCCUGUUAAUUCAACAGCUCGCAGUCAAG,-0.078
12,GGUCACGUCUCAAUCAACUCAAUCUCCAGGGAAAUCCCUGGUUUUCUCAACAGCUCGCAGUCAAG,-0.0158
13,GGUCACGUCUCAAUCAACUCCAUAGAGGGGGGGAAAACCCCUUUGCCCUCAACAUCAACAGCUCGCAGUCAAG,-0.501
14,GGUCACGUCUCAAUCAACUCUAUUCCCAGGGAAAACCCUGGUUUAUUCAACAGCUCGCAGUCAAG,-0.146
15,GGUCACGUCUCAAUCAACUCUAUAGAGGGGGGGAAAACCCCUUUACCCUCACAAUCAACAGCUCGCAGUCAAG,-0.4
16,GGUCACGUCUCAAUCAACUCAAUCCCAGGAGUUUUCUCCUGCUUUUUCAACAGCUCGCAGUCAAG,-0.15
17,GGUCACGUCUCAAUCAACUCUUCGCCAGGAGUUUCCUCCUGUAUUCUCAACAGCUCGCAGUCAAG,0.108
18,GGUCACGUCUCAAUCAACUCCCUAGAGGGGGGGAAAACCCCUUUGCCCUCACAUUCAACAGCUCGCAGUCAAG,-0.0224
19,GGUCACGUCUCAAUCAACUCAUCCCCCAGGGAAAACCCUGGCUAUCUCAACAGCUCGCAGUCAAG,-0.0217
20,GGUCACGUCUCAAUCAACUCAUUCUCAGGAGUUUGCUCCUGCAAUUUCAACAGCUCGCAGUCAAG,0.178
21,GGUCACGUCUCAAUCAACUCAUAAGAGGGGGGGAAAACCCCUUUACCCUCCACAUCAACAGCUCGCAGUCAAG,-0.538
22,GGUCACGUCUCAAUCAACUCAUUUCCCAGGGAAAACCCUGGUAAUUUCAACAGCUCGCAGUCAAG,-0.0238
23,GGUCACGUCUCAAUCAACUCUUUCUCCAGGGAAAGCCCUGGCAAACUCAACAGCUCGCAGUCAAG,-0.18
24,GGUCACGUCUCAAUCAACUCUUCCCCCAGGGAAAUCCCUGGUUUUUUCAACAGCUCGCAGUCAAG,-0.17
25,GGUCACGUCUCAAUCAACUCAUUCCCAGGAGUUUCCUCCUGCUAUCUCAACAGCUCGCAGUCAAG,0.0283

row,Sequence,binding signal (log2 fold change)
1,GGUCACGUCUCAAUCAACUCUACUUCAGGAGUUUCCUCCUGUAAACUCAACAGCUCGCAGUCAAG,-0.021
2,GGUCACGUCUCAAUCAACUCAUUCCCAGGAGUUUCCUCCUGUAAUUUCAACAGCUCGCAGUCAAG,0.192
3,GGUCACGUCUCAAUCAACUCAUUUCCAGGAGUUUCCUCCUGUAUACUCAACAGCUCGCAGUCAAG,-0.0904
4,GGUCACGUCUCAAUCAACUCAUUCGCAGGAGUUUCCUCCUGGUUUCUCAACAGCUCGCAGUCAAG,0.089
5,GGUCACGUCUCAAUCAACUCAUUUCCCAGGGAAACCCCUGGUAUACUCAACAGCUCGCAGUCAAG,0.0642
6,GGUCACGUCUCAAUCAACUCCUACGAGGGGGGGAAAACCCCUUUACCCUCACUCUCAACAGCUCGCAGUCAAG,-0.23
7,GGUCACGUCUCAAUCAACUCUUCUUCCAGGGAAACCCCUGGUAUAUUCAACAGCUCGCAGUCAAG,0.0858
8,GGUCACGUCUCAAUCAACUCAUCCUCCAGGGAAAUCCCUGGUUUACUCAACAGCUCGCAGUCAAG,0.173
9,GGUCACGUCUCAAUCAACUCAAUCCCAGGAGUUUCCUCCUGCUAACUCAACAGCUCGCAGUCAAG,0.303
10,GGUCACGUCUCAAUCAACUCUUCCUCAGGAGUUUUCUCCUGCAAUCUCAACAGCUCGCAGUCAAG,-0.0543
11,GGUCACGUCUCAAUCAACUCUAUGUCCAGGGAAAACCCUGGUUUUUUCAACAGCUCGCAGUCAAG,-0.00335
12,GGUCACGUCUCAAUCAACUCUUUUUCCAGGGAAACCCCUGGUUUUCUCAACAGCUCGCAGUCAAG,-0.0114
13,GGUCACGUCUCAAUCAACUCUUCCCCCAGGGAAAUCCCUGGUUAACUCAACAGCUCGCAGUCAAG,-0.173
14,GGUCACGUCUCAAUCAACUCUAGUCCAGGAGUUUCCUCCUGCAAUUUCAACAGCUCGCAGUCAAG,-0.0796
15,GGUCACGUCUCAAUCAACUCUAUUUCCAGGGAAACCCCUGGCUUUCUCAACAGCUCGCAGUCAAG,0.0364
16,GGUCACGUCUCAAUCAACUCAUUCCCCAGGGAAAUCCCUGGUAAUCUCAACAGCUCGCAGUCAAG,0.273
17,GGUCACGUCUCAAUCAACUCUUUCUCAGGAGUUUCCUCCUGUUUUCUCAACAGCUCGCAGUCAAG,0.131
18,GGUCACGUCUCAAUCAACUCUUCCUCCAGGGAAACCCCUGGUUAUUUCAACAGCUCGCAGUCAAG,0.102
19,GGUCACGUCUCAAUCAACUCUUUUCCAGGAGUUUUCUCCUGUUAUUUCAACAGCUCGCAGUCAAG,0.0118
20,GGUCACGUCUCAAUCAACUCUAAAGAGGGGGGGAAAACCCCUUUGCCCUCGUAAUCAACAGCUCGCAGUCAAG,0.191
21,GGUCACGUCUCAAUCAACUCUUUCUCAGGAGUUUACUCCUGCUUACUCAACAGCUCGCAGUCAAG,0.0931
22,GGUCACGUCUCAAUCAACUCUAUUUCAGGAGUUUCCUCCUGCAUACUCAACAGCUCGCAGUCAAG,-0.0899
23,GGUCACGUCUCAAUCAACUCUUUCCCCAGGGAAAUCCCUGGUAAUUUCAACAGCUCGCAGUCAAG,-0.172
24,GGUCACGUCUCAAUCAACUCAACUUCAGGAGUUUGCUCCUGUAUUUUCAACAGCUCGCAGUCAAG,-0.0305
